# This is one part of the list.
# B1: Flo5 (Saccharomyces cerevisiae), P38894 (protein)
# chain: MGSSHHHHHHSSGLVPRGSHMSGATEACLPAGQRKSGMNINFYQYSLKDSSTYSNAAYMAYGYASKTKLGSVGGQTDISIDYNIPCVSSSGTFPCPQEDSYGNWGCKGMGACSNSQGIAYWSTDLFGFYTTPTNVTLEMTGYFLPPQTGSYTFSFATVDDSAILSVGGSIAFECCAQEQPPITSTNFTINGIKPWDGSLPDNITGTVYMYAGYYYPLKVVYSNAVSWGTLPISVELPDGTTVSDNFEGYVYSFDDDLSQSNCTIPDPSIH
# Key:
# Experiment in all cases: glycan array binding signal (z-score within array); higher = stronger binding
# Details in all cases: glycan notation: IUPAC condensed, linker removed
# [1] = target: GlcNAc(a1-6)Gal(b1-4)GlcNAc
# Method in brief: (§1)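 The binding signal is a Z-score computed within each array. Data were drawn from 3228 arrays in the Consortium for Functional Glycomics database, restricted to those with a known protein sequence. Scores were averaged over arrays of the same protein sequence at different concentrations or buffers, and over linkers, and negative values can be taken as non-binding.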
# [2] = target: GlcNAc(b1-2)Gal(b1-3)GalNAc
# Method in brief: as §1
# [3] = target: GlcNAc(b1-2)Man(a1-3)[GlcNAc(b1-2)Man(a1-6)]Man(b1-4)GlcNAc(b1-4)GlcNAc
# Method in brief: as §1
# [4] = target: GlcNAc(b1-2)Man(a1-3)[GlcNAc(b1-2)Man(a1-6)]Man(b1-4)GlcNAc(b1-4)[Fuc(a1-6)]GlcNAc
# Method in brief: as §1
# [5] = target: GlcNAc(b1-3)Gal
# Method in brief: as §1
# [6] = target: GlcNAc(b1-3)Gal(b1-3)GalNAc
# Method in brief: as §1
# [7] = target: GlcNAc(b1-3)Gal(b1-4)Glc
# Method in brief: as §1
# [8] = target: GlcNAc(b1-3)Gal(b1-4)GlcNAc
# Method in brief: as §1
# [9] = target: GlcNAc(b1-3)Gal(b1-4)GlcNAc(b1-3)Gal(b1-4)GlcNAc
# Method in brief: as §1
# [10] = target: GlcNAc(b1-3)GalNAc
# Method in brief: as §1
# [11] = target: GlcNAc(b1-3)Man
# Method in brief: as §1
# [12] = target: GlcNAc(b1-3)[GlcNAc(b1-4)][GlcNAc(b1-6)]GlcNAc
# Method in brief: as §1
# [13] = target: GlcNAc(b1-3)[GlcNAc(b1-6)]Gal(b1-4)GlcNAc
# Method in brief: as §1
# [14] = target: GlcNAc(b1-3)[GlcNAc(b1-6)]GalNAc
# Method in brief: as §1
# [15] = target: GlcNAc(b1-4)Gal(b1-4)GlcNAc
# Method in brief: as §1
# [16] = target: GlcNAc(b1-4)GlcNAc
# Method in brief: as §1
# [17] = target: GlcNAc(b1-4)GlcNAc(b1-4)GlcNAc
# Method in brief: as §1
# [18] = target: GlcNAc(b1-4)GlcNAc(b1-4)GlcNAc(b1-4)GlcNAc(b1-4)GlcNAc
# Method in brief: as §1
# [19] = target: GlcNAc(b1-4)GlcNAc(b1-4)GlcNAc(b1-4)GlcNAc(b1-4)GlcNAc(b1-4)GlcNAc
# Method in brief: as §1
# [20] = target: GlcNAc(b1-4)[GlcNAc(b1-6)]GalNAc
# Method in brief: as §1
# [21] = target: GlcNAc(b1-6)Gal(b1-4)GlcNAc
# Method in brief: as §1
# [22] = target: GlcNAc(b1-6)GalNAc
# Method in brief: as §1
# [23] = target: GlcNAc3Prop(b1-4)GlcNAc
# Method in brief: as §1
# [24] = target: GlcNAc6S(b1-3)Gal(b1-4)GlcNAc
# Method in brief: as §1
# [25] = target: Kdn(a2-3)Gal(b1-3)GalNAc
# Method in brief: as §1
# [26] = target: Kdn(a2-3)Gal(b1-3)GlcNAc
# Method in brief: as §1
# [27] = target: Kdn(a2-3)Gal(b1-4)Glc
# Method in brief: as §1
# [28] = target: Kdn(a2-3)Gal(b1-4)GlcNAc
# Method in brief: as §1
# [29] = target: Kdn(a2-3)Gal(b1-4)[Fuc(a1-3)]GlcNAc
# Method in brief: as §1
# [30] = target: Kdn(a2-6)Gal(b1-4)GlcNAc
# Method in brief: as §1
# [31] = target: Man(a1-2)Man(a1-2)Man(a1-3)Man
# Method in brief: as §1
# [32] = target: Man(a1-2)Man(a1-2)Man(a1-6)[Man(a1-3)]Man
# Method in brief: as §1
# [33] = target: Man(a1-2)Man(a1-3)Man
# Method in brief: as §1
# [34] = target: Man(a1-2)Man(a1-3)[Man(a1-2)Man(a1-6)]Man
# Method in brief: as §1
# [35] = target: Man(a1-2)Man(a1-3)[Man(a1-2)Man(a1-6)]Man(a1-6)[Man(a1-2)Man(a1-2)Man(a1-3)]Man
# Method in brief: as §1
# [36] = target: Man(a1-2)Man(a1-3)[Man(a1-2)Man(a1-6)]Man(a1-6)[Man(a1-2)Man(a1-2)Man(a1-3)]Man(b1-4)GlcNAc(b1-4)GlcNAc
# Method in brief: as §1
# [37] = target: Man(a1-2)Man(a1-3)[Man(a1-6)]Man(a1-6)[Man(a1-2)Man(a1-3)]Man(b1-4)GlcNAc(b1-4)GlcNAc
# Method in brief: as §1
binder,measurement,setting,value
B1,glycan array binding signal (z-score),[1],-0.154
same,glycan array binding signal (z-score),[2],-0.171
same,glycan array binding signal (z-score),[3],-0.155
same,glycan array binding signal (z-score),[4],0.311
same,glycan array binding signal (z-score),[5],-0.205
same,glycan array binding signal (z-score),[6],-0.194
same,glycan array binding signal (z-score),[7],-0.146
same,glycan array binding signal (z-score),[8],-0.207
same,glycan array binding signal (z-score),[9],-0.027
same,glycan array binding signal (z-score),[10],-0.184
same,glycan array binding signal (z-score),[11],-0.112
same,glycan array binding signal (z-score),[12],-0.245
same,glycan array binding signal (z-score),[13],-0.156
same,glycan array binding signal (z-score),[14],-0.169
same,glycan array binding signal (z-score),[15],-0.15
same,glycan array binding signal (z-score),[16],-0.172
same,glycan array binding signal (z-score),[17],0.412
same,glycan array binding signal (z-score),[18],-0.163
same,glycan array binding signal (z-score),[19],-0.246
same,glycan array binding signal (z-score),[20],-0.139
same,glycan array binding signal (z-score),[21],-0.098
same,glycan array binding signal (z-score),[22],-0.122
same,glycan array binding signal (z-score),[23],-0.306
same,glycan array binding signal (z-score),[24],-0.209
same,glycan array binding signal (z-score),[25],-0.129
same,glycan array binding signal (z-score),[26],-0.178
same,glycan array binding signal (z-score),[27],-0.176
same,glycan array binding signal (z-score),[28],-0.231
same,glycan array binding signal (z-score),[29],-0.074
same,glycan array binding signal (z-score),[30],-0.042
same,glycan array binding signal (z-score),[31],6.07
same,glycan array binding signal (z-score),[32],-0.079
same,glycan array binding signal (z-score),[33],-0.101
same,glycan array binding signal (z-score),[34],-0.141
same,glycan array binding signal (z-score),[35],-0.064
same,glycan array binding signal (z-score),[36],-0.127
same,glycan array binding signal (z-score),[37],-0.127

# From the supplement of paper PMC8728848
